This passage reports Kd results from article PMC8098127, “A new crystal form of GABARAPL2” (Acta Crystallographica. Section F, Structural Biology …, 2021).

The assay deals with T1, NDP52 I133W LIR peptide (I133W (stands in the printed letters)).
T1 construct: LIR stretch of NDP52 (CALCOCO2) with I133W; Captured by its biotin on a streptavidin sensor chip; also called Super LIR; generic LIR peptide; source: synthetic peptide; bought: Mimotopes; not shown: LC-biotin, N-terminal, kept
T1 peptide: {LC‑biotin}-ENEEDWLVVTTQGE
The experiment in a line: SPR; BIAcore S200; biotinylated peptide captured on a streptavidin chip, GABARAPL2 injected in a threefold, ten-step dilution series; 10 mM HEPES, 150 mM NaCl, 3.4 mM EDTA, 0.05% Tween pH 7.4; steady-state fit. The following applies: both partners purified. (SPR reads the build-up and loss of mass on a sensor chip optically.)

Values joined by “and” are separate entries in the source; they are usually repeats but may differ in a detail not shown here. Equal entries are not always repeated. Ends that are not written are not given here. * marks the point of attachment. LC‑biotin = O=C(CCCC[C@@H]1SC[C@@H]2NC(=O)N[C@@H]21)NCCCCCC(=O)*

B1: GABARAPL2 (natural protein)
chain: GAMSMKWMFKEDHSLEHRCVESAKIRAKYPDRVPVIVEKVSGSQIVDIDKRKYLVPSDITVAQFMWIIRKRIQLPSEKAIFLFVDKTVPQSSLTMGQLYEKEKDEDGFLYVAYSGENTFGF
notes: non-native N-terminal residues of the construct produced, left after TEV cleavage from the GST fusion; GABARAPL2 (GATE-16), human, full length with the C-terminal Phe117 kept ([…]); Expressed from pETM-30 as a GST fusion from synthetic DNA; also called GATE-16; GBRPL2; source: E. coli BL21 (DE3), purified (Glutathione Sepharose, on-column TEV cleavage, Superdex S75)
Regarding B1, the dissociation constant Kd (in general, the constant that tells how readily two partners part at equilibrium) is 4.85 µM and 5.07 µM.
